{
  "source": "PubChem BioAssay AID485294",
  "about": "(National Center for Advancing Translational Sciences (NCATS), 2010)",
  "note": "About 150 (0.041%) of roughly 370,000 compounds were called active. The shares of active, inactive and inconclusive entries below differ from those in the screen. Calls follow the shape of the dose curve; as a rule, active = well fitted inhibition curve with a large enough effect; inconclusive = small, poorly fitted or top-dose-only effect; inactive = flat fitted curve, though single readings scatter. No potency is given beside an inconclusive call; the fits are too rough. Potency is read from the fitted curve at half-maximal effect; tags tell the direction and shape of the fitted curve.",
  "data": [
    {"molecular_target": "Beta-lactamase (Escherichia coli (strain K12)) (UniProt P00811)", "sequence (P00811 whole entry, looked up)": "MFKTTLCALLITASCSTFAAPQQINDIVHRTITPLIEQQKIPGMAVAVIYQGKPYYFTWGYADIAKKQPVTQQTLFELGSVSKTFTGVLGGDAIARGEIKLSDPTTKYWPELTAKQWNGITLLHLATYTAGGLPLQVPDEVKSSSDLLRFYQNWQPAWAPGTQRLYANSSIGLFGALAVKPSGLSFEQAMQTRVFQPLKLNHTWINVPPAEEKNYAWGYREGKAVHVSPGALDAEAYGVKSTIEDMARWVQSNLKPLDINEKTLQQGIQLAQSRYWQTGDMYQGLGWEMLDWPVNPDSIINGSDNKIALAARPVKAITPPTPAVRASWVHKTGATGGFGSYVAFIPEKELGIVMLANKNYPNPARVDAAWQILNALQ", "assay": "qHTS Inhibitors of AmpC Beta-Lactamase (assay with detergent); also: nearly all actives have a fitted effect of over 25% in size;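 as to activity change, negative = inhibition: 0% = no-compound wells and -100% = no-enzyme wells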", "conditions": "AmpC hydrolysis of nitrocefin, absorbance 480 nm, 0.01% Triton; activity change, negative = inhibition: at 114 µM (top of the series)", "in_short": "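20 mM phosphate pH 7.0 + 0.01% (detergent screen) or 0.0001% Triton X-100; 5.3 nM AmpC reagent; cpd preinc 15 min RT; nitrocefin (800 uM stock) to start; A480 q20 s × 4 min; Activity was normalised to no-enzyme and no-compound control wells.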", "values": [
      {"smiles": "Cc1nn(Cc2ccc(Cl)cc2)c(C)c1NC(=O)CSc1nc2c(c(C(F)(F)F)n1)CCc1ccccc1-2", "activity change, negative = inhibition": "inactive: -5.47%"},
      {"smiles": "Cc1cccc(-c2nsc(SCC(=O)Nc3ccc4c(c3)OCO4)n2)c1", "activity change, negative = inhibition": "inactive: -14.5%"},
      {"smiles": "CN(C)CCCNC(=O)C1CCNCC1", "Potency": "inconclusive [inhibitor, partial curve]"},
      {"smiles": "Cn1c(SCC(=O)c2ccccc2)nnc1-c1ccco1", "activity change, negative = inhibition": "inactive: 2.47%"},
      {"smiles": "COc1cc2c(cc1OC)C(C)N(C(=O)c1cc3ccccc3o1)CC2", "note": "(stereo not drawn)", "activity change, negative = inhibition": "inactive: -6.63%"},
      {"smiles": "CCOC(=O)N1CCN(C(=O)C2CCN(S(=O)(=O)c3cc(C)ccc3OC)CC2)CC1", "Potency": "inconclusive [inhibitor, full curve]"},
      {"smiles": "CC(=O)c1cccc(NC(=O)c2cc3sc(Cl)cc3n2C)c1", "activity change, negative = inhibition": "inactive: -4.06%"},
      {"smiles": "CC(C)CN(C(=O)C1CCCCC1)C1CCS(=O)(=O)C1", "note": "(stereo not drawn)", "Potency": "inconclusive [inhibitor, full curve, poor fit]"},
      {"smiles": "Cn1c(=NC(=O)c2ccc(S(=O)(=O)N3CCCc4ccccc43)cc2)sc2cc(S(C)(=O)=O)ccc21", "activity change, negative = inhibition": "inactive: -1.76%"},
      {"smiles": "COc1cc(NC(=O)Cc2cccs2)ccc1-n1cnnn1", "Potency": "inconclusive [inhibitor, full curve]"},
      {"smiles": "COc1ccc(OC)c(C(=O)NC(CC(N)=O)c2ccc(NCc3ccc(F)c(F)c3)c([N+](=O)[O-])c2)c1", "note": "(stereo not drawn)", "Potency": "inconclusive [inhibitor, full curve, poor fit]"},
      {"smiles": "CSc1cccc(NC(=S)N2CCCN(Cc3ccccc3F)C2)c1", "Potency": "inconclusive [inhibitor, full curve, poor fit]"},
      {"smiles": "C#CCOCCOCCOCCNc1nc(N2CCN(C(=O)CCCCCCCCCCNC(=O)[C@H](CO)n3cc(CCCCCN)nn3)CC2)nc(N2CCN(C(=O)CCCCCCCCCCNC(=O)[C@H](CCCN=C(N)N)n3cc(C[C@@H](C)CC)nn3)CC2)n1", "activity change, negative = inhibition": "inactive: 3.76%"},
      {"smiles": "COc1ccc(N(CC(=O)NCCSCc2ccc(C)cc2)S(=O)(=O)c2ccccc2)cc1", "Potency": "inconclusive [inhibitor, full curve, poor fit]"},
      {"smiles": "CCCc1cc(=O)oc2cc(C)c3c(C)coc3c12", "Potency": "inconclusive [inhibitor, partial curve, poor fit]"},
      {"smiles": "COC(=O)c1ccc(COC(=O)c2ccc(C)c(S(=O)(=O)N3CCCCC3)c2)cc1", "Potency": "inconclusive [inhibitor, full curve, poor fit]"},
      {"smiles": "O=C(NCc1cccnc1)C(=O)NCC1OCCCN1S(=O)(=O)c1ccccc1", "note": "(stereo not drawn)", "Potency": "inconclusive [inhibitor, partial curve]"},
      {"smiles": "Cc1cc(C)c(C(=O)OCC(=O)NC(=O)c2ccccc2)c(C)c1", "Potency": "inconclusive [inhibitor, full curve, poor fit]"},
      {"smiles": "CC1CC(C)CN(C(=O)C(Cc2ccccc2)n2cccc2)C1", "note": "(stereo not drawn)", "activity change, negative = inhibition": "inactive: 5.92%"},
      {"smiles": "Cc1ccc(-c2csc(NC(=O)CSc3nc4ccccc4o3)n2)cc1", "Potency": "inconclusive [inhibitor, full curve, poor fit]"},
      {"smiles": "COc1cc(-c2nc3ccccc3s2)ccc1O", "activity change, negative = inhibition": "inactive: -9.58%"},
      {"smiles": "CCc1ccc(C(=O)c2cn(CC(=O)Nc3cc(OC)cc(OC)c3)c3ccc(CC)cc3c2=O)cc1", "activity change, negative = inhibition": "inactive: -10.2%"},
      {"smiles": "N/C(=N\\OC(=O)c1ccc(=O)n(Cc2ccc(Cl)cc2)c1)c1ccccn1", "Potency": "inconclusive [inhibitor, full curve, poor fit]"},
      {"smiles": "Cc1ccc(/C=C2\\C(=O)NC(=S)N(c3ccccc3F)C2=O)s1", "activity change, negative = inhibition": "inactive: 0.975%"},
      {"smiles": "N#Cc1cn(CC(=O)O)c2ccccc12", "Potency": "inconclusive [inhibitor, full curve]"},
      {"smiles": "CCCOc1ccc(CN2C(=O)C(=O)c3cccc(C)c32)cc1", "activity change, negative = inhibition": "inactive: 13.2%"},
      {"smiles": "Cc1ccc(S(=O)(=O)NCCN=Cc2ccc(N(C)C)cc2)cc1", "Potency": "inconclusive [inhibitor, full curve]"},
      {"smiles": "Cc1ccc(-n2nc(C)c3c(C)c(CCC(=O)NCc4ccc(Cl)cc4)c(C)nc32)cc1", "activity change, negative = inhibition": "inactive: 17%"},
      {"smiles": "COc1ccc(-c2nc3ccccc3s2)cc1NC(=O)c1cccc(F)c1", "activity change, negative = inhibition": "inactive: -3.98%"},
      {"smiles": "COc1ccc(C2SCC(=O)N2c2ccc(C)cc2)cc1", "note": "(stereo not drawn)", "Potency": "inconclusive [inhibitor, full curve]"},
      {"smiles": "COc1cccc(CNC(=O)c2ccc3nc(CCc4ccccc4)oc3c2)c1OC", "activity change, negative = inhibition": "inactive: 0.972%"},
      {"smiles": "CC(C)[C@H](NC(=O)Nc1ccccc1F)C(=O)O", "Potency": "inconclusive [inhibitor, full curve, poor fit]"},
      {"smiles": "CC(NC(=S)Nc1ccccc1Cl)C(c1ccccc1)N1CCOCC1", "note": "(stereo not drawn)", "Potency": "inconclusive [inhibitor, full curve]"},
      {"smiles": "Cc1nnc(SCC(=O)N2CCC(C(=O)Nc3nccs3)CC2)n1Cc1ccccc1", "Potency": "inconclusive [inhibitor, full curve, poor fit]"},
      {"smiles": "CCCSCCCNC(=O)c1sc2nc(C)cc(C)c2c1-n1cccc1", "activity change, negative = inhibition": "inactive: -9.02%"},
      {"smiles": "Cc1cccc(NC(=O)CSc2nc3ccc(NC(=O)CCc4ccccc4)cc3s2)c1", "activity change, negative = inhibition": "inactive: 3.59%"},
      {"smiles": "CC1(C)Cc2nc(NCCCO)c(C#N)cc2CO1", "Potency": "inconclusive [inhibitor, full curve, poor fit]"},
      {"smiles": "CCOC(=O)N1CCN(C(=O)C2CCN(c3nnc(-n4cccc4)s3)CC2)CC1", "Potency": "inconclusive [inhibitor, full curve, poor fit]"},
      {"smiles": "COC(=O)C1=C(N)c2c(F)cccc2C1(C#N)c1ccc(F)cc1", "note": "(stereo not drawn)", "Potency": "inconclusive [inhibitor, full curve, poor fit]"},
      {"smiles": "CC(=O)N1c2ccc(S(=O)(=O)N(C)CC(=O)NC(C)c3ccccc3)cc2CC1C", "note": "(stereo not drawn)", "Potency": "inconclusive [inhibitor, partial curve, poor fit]"},
      {"smiles": "Cc1cc(C)c2nc(SCCc3ccccc3)nc(C)c2c1", "Potency": "inconclusive [inhibitor, full curve, poor fit]"},
      {"smiles": "Cc1ccc(NC2CCCN(C(=O)c3ccc4[nH]ccc4c3)C2)cc1C", "note": "(stereo not drawn)", "Potency": "inconclusive [inhibitor, full curve, poor fit]"},
      {"smiles": "CCN1CCN(CCCNC(=O)Cn2cc3c(n2)CCCC3)CC1", "Potency": "inconclusive [inhibitor, full curve, poor fit]"},
      {"smiles": "CCCCOC(=O)c1ccc(S(N)(=O)=O)o1", "activity change, negative = inhibition": "inactive: 2.93%"},
      {"smiles": "COCCCNC(=O)Cn1c(=O)n(Cc2ccccc2Cl)c(=O)c2cc(OC)c(OC)cc21", "Potency": "inconclusive [inhibitor, full curve, poor fit]"},
      {"smiles": "O=C(NC1CCC(O)CC1)c1cc(-c2ccc(Cl)cc2)nc2ccccc12", "note": "(stereo not drawn)", "Potency": "inconclusive [inhibitor, full curve, poor fit]"},
      {"smiles": "CCCc1cc(=O)[nH]c(SCc2nc(-c3ccccc3)no2)n1", "activity change, negative = inhibition": "inactive: 16.2%"},
      {"smiles": "CCc1cccc(C)c1NC(=O)COC(=O)C1CCN(S(=O)(=O)c2ccccc2)CC1", "Potency": "inconclusive [inhibitor, partial curve]"},
      {"smiles": "CCOc1ccc(-n2ccnc(SCC(=O)Nc3cccc(OC)c3)c2=O)cc1", "Potency": "inconclusive [inhibitor, partial curve, poor fit]"},
      {"smiles": "CCOC(=O)Cc1csc(NC(=O)Nc2ccc(OC(F)(F)F)cc2)n1", "activity change, negative = inhibition": "inactive: -2.82%"},
      {"smiles": "CCOC(=O)Cc1nnc(NC(=O)COc2ccc(C)cc2)s1", "Potency": "inconclusive [inhibitor, full curve, poor fit]"},
      {"smiles": "CCCCOc1ccc(Cc2c(O)nc(SC)[nH]c2=O)cc1", "Potency": "inconclusive [inhibitor, single point]"},
      {"smiles": "Cc1ccsc1-c1nc(CSCC(=O)NCc2ccc3c(c2)OCO3)c(C)o1", "Potency": "inconclusive [inhibitor, full curve]"},
      {"smiles": "CN(C)C=NC(=O)/C(C#N)=C1\\CCc2ccccc2N1", "Potency": "inconclusive [inhibitor, partial curve, poor fit]"},
      {"smiles": "O=C(NC(=S)N1CCN(C/C=C/c2ccccc2)CC1)c1c(F)cccc1F", "Potency": "inconclusive [inhibitor, partial curve, poor fit]"},
      {"smiles": "CCOc1ccc(NC(=O)c2ccc(CNc3c(NC4CCCCC4)c(=O)c3=O)cc2)cc1", "Potency": "inconclusive [inhibitor, partial curve, poor fit]"},
      {"smiles": "O=C(Nc1ccc(Cl)c(C(F)(F)F)c1)c1ccncc1", "activity change, negative = inhibition": "inactive: -6.48%"},
      {"smiles": "O=C(C[n+]1ccc2ccccc2c1)c1ccc(NC(=O)c2ccccc2)cc1", "activity change, negative = inhibition": "inactive: 5.86%"},
      {"smiles": "COCCn1c(SCC(=O)Nc2ccc(NC(C)=O)cc2)nc2c([nH]c3ccccc32)c1=O", "Potency": "inconclusive [inhibitor, partial curve]"},
      {"smiles": "O=Cc1c(NCCN2CCOCC2)c2ccccc2[nH]c1=O", "Potency": "inconclusive [inhibitor, full curve, poor fit]"},
      {"smiles": "O=[N+]([O-])/C(C(Cl)=C(Cl)Cl)=C(\\Nc1ccc(F)cc1)n1cncn1", "activity change, negative = inhibition": "inactive: -10.8%"},
      {"smiles": "CCOc1ccccc1CNS(=O)(=O)c1ccc2c(c1)oc(=O)n2C", "Potency": "inconclusive [inhibitor, full curve, poor fit]"},
      {"smiles": "CCSc1nnc(NC(=O)c2cccc(S(=O)(=O)N(C)c3ccccc3)c2)s1", "Potency": "inconclusive [inhibitor, partial curve]"},
      {"smiles": "COc1ccc(C(=O)NNC(=O)c2ccccn2)cc1", "activity change, negative = inhibition": "inactive: -3.66%"},
      {"smiles": "Cc1ccc(NC(=O)CSc2nc3n[nH]c(C)c3c(=N)n2-c2ccccc2C)cc1C", "activity change, negative = inhibition": "inactive: -0.951%"},
      {"smiles": "CCCCOC(=O)CSc1nc(N)c(C#N)c(-c2ccc(OCC)cc2)c1C#N", "Potency": "inconclusive [inhibitor, full curve]"},
      {"smiles": "COC(=O)c1ccc(CN2CCCC(C(=O)c3ccccc3OC)C2)cc1", "note": "(stereo not drawn)", "Potency": "inconclusive [inhibitor, partial curve]"},
      {"smiles": "CC(C)C(C)(C#N)NC(=O)CSc1nc(C2CCCCC2)n(-c2ccccc2)n1", "note": "(stereo not drawn)", "Potency": "inconclusive [inhibitor, full curve, poor fit]"}
    ]}
  ]
}
